How the values were obtained:
[1] = test system: root-knot nematodes (Meloidogyne spp.); experiment: Nematocidal activity on hatched root-knot nematodes in Petri dish; format: in vivo
Procedure: In some embodiments, the nematodes used in the experiments were mainly Meloidogyne spp. The below disclosed experiment results are related to the evaluation of nematocidal activity of naturally derived material.
The tomato roots infected with root-knot nematodes were washed with running water and were then cut to a size of about 1 cm, after which 50 g of the cut roots were placed in a 500 ml round-bottom flask containing 200 ml of 0.5% sodium hypochloride (NaOCl), stopped with a rubber stopper, and shaken vigorously for 3 min to sterilize the roots and at the same time burst the egg bag. Thereafter, the solution was passed through a sieve in which 200 mesh was superimposed on 500 mesh, and washed with distilled water, so the eggs of the root-knot nematodes from which the NaOCl solution was removed were recovered.
Next, the eggs of the root-knot nematodes thus recovered were surface-sterilized with 0.5% NaOCl for 10 min, washed thoroughly with sterile distilled water, placed in a phosphate buffer (1%) containing sterilized normal saline, and hatched in an incubator at 25° C.
Thereafter, each mixed solution was diluted to 2000 ppm, 2 to 3 ml thereof was poured into a Petri dish, after which 15 hatched root-knot nematodes were placed in the Petri dish, and nematocidal activity was measured and the results thereof are shown in Table 1 below.
The number of root-knot nematodes used for the experiment on the number of killed root-knot nematodes was 15 at each dilution factor.

[2] = test system: tomato seedlings; experiment: Phytotoxicity of geraniol, drenching treatment of potted tomato seedlings; format: in vivo; conditions: for Extent of phytotoxicity (0-5) / Phytotoxicity symptom: Tomato, 50 ml drench, 1 week; for phytotoxicity symptoms: tomato seedlings
Excerpt: Sterilized soil was uniformly mixed, 300 g thereof was then placed in each pot, and tomato seedlings not infected with root-knot nematodes were transplanted thereto.

[3] = test system: (Ae. aegypti), Culex species mosquitoes, Anopheles species mosquitoes; experiment: Mosquito and midge adult activity; format: in vivo; conditions: used at 500 to 8,000 ppm
[4] = cited from earlier work
[5] = test system: Black Sigatoka; experiment: Field trials in bananas against black Sigatoka; format: in vivo, Mycosphaerella fijiensis; conditions: applied as tank mixes with tea tree oil
Procedure: Tea tree oil was used in disclosed experiments and trials as an 53mulsifiable concentrated formulation. For field trials in bananas, tea tree oil was applied similarly to conventional synthetic fungicides, with mineral oil, surfactants, and/or just water. The following fungicides, registered for use against black sigatoka in bananas, were tested for comparison: azoxystrobin (Bankit 25 SC), trifloxystrobin (Flint, Tega 50 WG), difenoconazole (Score, Sico 25 EC), mancozeb (43 SC Duwest 80 WP), flutriafol (Impact, 125 SC) and tridemorph (Calixin 86 OL).

[6] = 2000 ppm dilution, 1 day, 15 nematodes
[7] = 2000 ppm dilution, 2 days, 15 nematodes
[8] = 2000 ppm dilution, 3 days, 15 nematodes

In the case of C/C=C(\C)C(=O)O[C@H]1C[C@@H](OC(C)=O)[C@@]2(C(=O)OC)CO[C@H]3[C@@H](O)[C@@](C)([C@]45O[C@@]4(C)[C@H]4C[C@@H]5O[C@@H]5OC=C[C@@]54O)[C@H]4[C@]1(CO[C@]4(O)C(=O)OC)[C@@H]32 [Azadirachtin, azadirachtin], the “number of killed root-knot nematodes” value [1, 6] is reported as 7, the “number of killed root-knot nematodes” value [1, 7] is reported as 8 and the “number of killed root-knot nematodes” value [1, 8] is reported as 10.

With CC(C)=CCC/C(C)=C/CO [Geraniol, 3,7-dimethyl-2,6-octadien-1-ol] the “number of killed root-knot nematodes” value ([1]; Geraniol 2,000 ppm, 1 day, 15 nematodes) was 15, the “nematocidal control and plant phytotoxicity” value ([1]; geraniol used at 500 to 4,000 ppm) was “superior nematocidal control was demonstrated without plant phytotoxicity” and the “Extent of phytotoxicity (0-5)” value ([2]; Geraniol 100 ppm) was 0. The Phytotoxicity symptom ([2]; Geraniol 100 ppm) was “No”, the “Extent of phytotoxicity (0-5)” value ([2]; Geraniol 200 ppm) was 0 and the Phytotoxicity symptom ([2]; Geraniol 200 ppm) was “No”. For the same compound, the “Extent of phytotoxicity (0-5)” value ([2]; Geraniol 330 ppm) was 0, the Phytotoxicity symptom ([2]; Geraniol 330 ppm) was “No” and the “Extent of phytotoxicity (0-5)” value ([2]; Geraniol 500 ppm) was 0. For the same compound, the Phytotoxicity symptom ([2]; Geraniol 500 ppm) was “No”, the “Extent of phytotoxicity (0-5)” value ([2]; Geraniol 1,000 ppm) was 0 and the Phytotoxicity symptom ([2]; Geraniol 1,000 ppm) was “No”. For the same compound, the “Extent of phytotoxicity (0-5)” value ([2]; Geraniol 2,000 ppm) was 0, the Phytotoxicity symptom ([2]; Geraniol 2,000 ppm) was “No” and the “Extent of phytotoxicity (0-5)” value ([2]; Geraniol 3,000 ppm) was 0. For the same compound, the Phytotoxicity symptom ([2]; Geraniol 3,000 ppm) was “No”, the “Extent of phytotoxicity (0-5)” value ([2]; Geraniol 4,000 ppm) was 5 and the Phytotoxicity symptom ([2]; Geraniol 4,000 ppm) was “Withered”. For the same compound, the “Extent of phytotoxicity (0-5)” value ([2]; Geraniol 5,000 ppm) was 5, the Phytotoxicity symptom ([2]; Geraniol 5,000 ppm) was “Withered” and the “Extent of phytotoxicity (0-5)” value ([2]; Geraniol 10,000 ppm) was 5. For the same compound, the Phytotoxicity symptom ([2]; Geraniol 10,000 ppm) was “Withered”, the “Extent of phytotoxicity (0-5)” value ([2]; Geraniol 20,000 ppm) was 5 and the Phytotoxicity symptom ([2]; Geraniol 20,000 ppm) was “Withered”. For the same compound, the phytotoxicity symptoms ([2]; at 4000 ppm or more) was “all tomato seedlings collapsed and withered”, the phytotoxicity symptoms ([2]; concentration range of 100 ppm to 3,000 ppm) was “no particular phytotoxicity symptoms” and the “mosquito and midge control, plant phytotoxicity, water toxicology” value [3] was “superior mosquito and midge control was demonstrated without plant phytotoxicity or water toxicology”. For the same compound, the solubility in water [4] was “insoluble in water”.

With CC1COC(Cn2cncn2)(c2ccc(Oc3ccc(Cl)cc3)cc2Cl)O1 (stereo not shown) [difenoconazole] the “control of Black Sigatoka” value [5] was “effectively controlled”.

For CON=C(C(=O)OC)c1ccccc1CON=C(C)c1cccc(C(F)(F)F)c1 [trifloxystrobin], the “control of Black Sigatoka” value [5] was “effectively controlled”.

For pyrethrin, the “Nematocidal efficiency (%)” value ([1]; 2000 ppm dilution, 15 nematodes, up to 3 days) was 73.3%, the “number of killed root-knot nematodes” value [1, 6] was 5 and the “number of killed root-knot nematodes” value [1, 7] was 6. For the same compound, the “number of killed root-knot nematodes” value [1, 8] was 11.

— patent US20250248397A1, “CHITOSAN ENCAPSULATION OF ABSOLUTE (ESSENTIAL) ROSEMARY, PEPPERMINT, AND COTTONSEED OILS” (GroPro Corporation, priority 2024, published 2025)
